From paper PMC12136788
The other results are listed elsewhere or left out.

B1: chr12:49764829:49764866:+|3pUTR|ENSG00000139644|msi1_unk|total|mutant (ssRNA)
RNA: GGGAGUUCUACAGUCCGACGAUCACUUUUAAAGAAAAUACCUAACAGAUUUUUAAUACCGUUAUCUCUACCACUUUCUUUUCCCGUUUCUUGAUUUUCAGCUCAGGCUGCAUUCUAACUCAUACUGUGAAGACAAAGGUGUUUCAACAGAGGAUUGAGCAUCA
B2: chr1:235808650:235808751:-|CDS|ENSG00000143669|unk|total|mutant (ssRNA)
RNA: GGGAGUUCUACAGUCCGACGAUCUGGAAAUGGGAUGCUUUAAAGGCUUAUCAGAACUUUGUUUUUGAAGAAGACAGAUUACACCGUAUACAGAUUGCAAAUCACAUUUGCAAUUUAAUCCAGAAAGGCAAUACCGUUGUUCAGCAACAGAGGAUUGAGCAUCA
B3: chr3:160432293:160432405:+|CDS|ENSG00000113810|unk|FALSE|bound_elsewhere (ssRNA)
RNA: GGGAGUUCUACAGUCCGACGAUCGAAUUGUAUUUGCAACGGGUAGCAGAAUUGGACAAAAUUACUUAUGAAAGAGACAGUUUUAGACAGGCAUAUGAAGAUCUUCGGAAACAAAGGCUUAAUGAAUUUAUGGCAGGUUUUUAUCAACAGAGGAUUGAGCAUCA
B4: chr12:1780521:1780622:+|CDS|ENSG00000006831|msi1|total|mutant (ssRNA)
RNA: GGGAGUUCUACAGUCCGACGAUCCCCAAAUAUCUCCUUUGUGGCCCCUCUGCAAGAGAAGGUGGUCUUUGGAUUAUUUUUCUCCGGAGCCAUUCUCUGCCUUUCUUUUUCAUGGCUCUUCCACACAGUCUACUGCCACUCAGACAACAGAGGAUUGAGCAUCA
B5: chr2:69942770:69942871:+|3pUTR|ENSG00000059728|unk|total|mutant (ssRNA)
RNA: GGGAGUUCUACAGUCCGACGAUCUGUUUCCAGAUGUUUCUUUAUGUAAAUAUGACGCCAAUGUAAAUCCUGUGUCAAGAUCACCGAGAAUGGUGCUUUUUACUACAGUCCGCACAUGCAUUUUCCGAAACUACUACAUGUUUUCAACAGAGGAUUGAGCAUCA
B6: chr2:54972555:54972835:-|3pUTR|ENSG00000115310|msi1_unk|total|mutant (ssRNA)
RNA: GGGAGUUCUACAGUCCGACGAUCUGUGCACUGUGUAUGGUCCGUGCCGAUUGAUGCAGAUUUUCUGAAAUGAAAUGUUUGUUCCGACGAGAUCAUACCGGUAAAGCAGGAAUGACAAAGCUUGCUUUUCUGGUAUGUUCCCGGCAACAGAGGAUUGAGCAUCA
B7: chr15:71825291:71825392:-|3pUTR|ENSG00000066933|unk|FALSE|unique (ssRNA)
RNA: GGGAGUUCUACAGUCCGACGAUCUGAAGCUAUUUUUGUUAAUAUUCUGGUUACUGAAGUUUAUUGUAAAUAUGUAUGUAUAGUAGGCAUAUUUCUUUUUAACCUUGUGCUUCCCUCCUUCCCAUGGAAUUUCUUCCCACAGAUCAACAGAGGAUUGAGCAUCA
B8: ENSG00000124766:be:win_2151|3pUTR|ENSG00000124766|bound_else_gene|NA|bound_elsewhere_windowed (ssRNA)
RNA: GGGAGUUCUACAGUCCGACGAUCGUGUGACCGGCGCUAGGAAAUGACCCGAGAACCCCGUUGGAAGCGCAGCAGCGGGAGCUAGGGGCGGGGGCGGAGGAGGACACGAACUGGAAGGGGGUUCACGGUCAAACUGAAAUGGAUCAACAGAGGAUUGAGCAUCA
B9: ENSG00000189184:stop:overlap|stop_codon|ENSG00000189184|stop_codon|NA|stop_codon (ssRNA)
RNA: GGGAGUUCUACAGUCCGACGAUCUGGAUGCCAGUGAACUGGUGGCAGAGAUUAACAAACUGCUUCAAGAUGUCCGCCAGAGCUAGGAGAUUUUAGCGAAGCAUUUUUGUUUCCAUGUAUAUGGAAAUAGGGAACAACAACAACCAACAGAGGAUUGAGCAUCA
B10: chr7:127374855:127374969:-|CDS|ENSG00000048405|unk|total|mutant (ssRNA)
RNA: GGGAGUUCUACAGUCCGACGAUCCCCCGAAGCCAUAUAUCCAAGUGUGGACAAACGAGAAUAUAUUAUUAAGCCCGAACCCACCGAAACUAAUCAAAAUGCAGUAUUUCAAUAUAUUUCGAGGACUGAUAAUCCUAUUGAAGUCAACAGAGGAUUGAGCAUCA
B11: chr7:101138926:101139078:+|3pUTR|ENSG00000106366|msi1|FALSE|unique (ssRNA)
RNA: GGGAGUUCUACAGUCCGACGAUCUAUUUUAAAGACCAAUUUAUGGGAGAAUUGCACACAGAUGUGAAAUGAAUGUAAUCUAAUAGAAGCCUAAUCAGCCCACCAUGUUCUCCACUGAAAAAUCCUCUUUCUUUGGGGUUUUUCCAACAGAGGAUUGAGCAUCA
B12: chr7:6403675:6403689:+|3pUTR|ENSG00000136238|msi1_unk|FALSE|overlapping (ssRNA)
RNA: GGGAGUUCUACAGUCCGACGAUCACUGUCACUUGACCAAUACUGACCCUCUUUACCUCGCCCACGCGGACACACGCCUCCUGUAGUCGCUUUGCCUAUUGAUGUUCCUUUGGGUCUGUGAGGUUCUGUAAACUGUGCUAGUGCCAACAGAGGAUUGAGCAUCA
B13: chrX:154436128:154436291:+|3pUTR|ENSG00000071553|msi1_unk|FALSE|overlapping (ssRNA)
RNA: GGGAGUUCUACAGUCCGACGAUCAUUCUAGGGUCUCCUUUCUCCUUAUUUAUUCUUGUGGCUACAUCAUCCCUGGCUGUGGAUAGUGCUUUUGUGUAGCAAAUGCUCCCUCCUUAAGGUUAUAGGGCUCCCUGAGUUUGGGAGCAACAGAGGAUUGAGCAUCA
B14: ENSG00000070961:be:win_5151|3pUTR|ENSG00000070961|bound_else_gene|NA|bound_elsewhere_windowed (ssRNA)
RNA: GGGAGUUCUACAGUCCGACGAUCUAACAGAUUAGGUAAAAUGAGAUUACAUGAAAAGGUUCUAAAAUGAUAUAUUUAGAUGCAAUAAUUAACCAUAUGCUAGAAUGCCCACCUCUAAGCCAAUUGGAUUCUUUAGCUCUCUUUCAACAGAGGAUUGAGCAUCA
B15: chr9:128583791:128583907:+|CDS|ENSG00000197694|unk|FALSE|bound_elsewhere (ssRNA)
RNA: GGGAGUUCUACAGUCCGACGAUCCAACCAGCAACAGCAAUUUAAUCGCAAUGUUGAGGAUAUUGAAUUGUGGCUAUAUGAAGUAGAAGGUCACUUGGCUUCGGAUGAUUACGGCAAAGAUCUUACCAAUGUGCAGAACCUCCACAACAGAGGAUUGAGCAUCA
B16: chr5:151662667:151662729:-|3pUTR|ENSG00000113140|msi1_unk|total|mutant (ssRNA)
RNA: GGGAGUUCUACAGUCCGACGAUCGCCAGGCUGUUUCAGCCAGGAAGGCCAAAAUCAAGAGUGAGAUGCCGAAAGUUGUAAAACCGAAAAAGUGGAGUUGGUGAAUCGGUUGUUCUUUCCUCACAUUUGGAUGAUUGUCAUAAGCAACAGAGGAUUGAGCAUCA
B17: chr19:41330322:41331077:-|three_prime_utr|ENSG00000105329|control|control|control (ssRNA)
RNA: GGGAGUUCUACAGUCCGACGAUCGUCUGCACUAUUCCUUUGCCCGGCAUCAAGGCACAGGGGACCAGUGGGGAACACUACUGUAGUUAGAUCUAUUUAUUGAGCACCUUGGGCACUGUUGAAGUGCCUUACAUUAAUGAACUCCAACAGAGGAUUGAGCAUCA
B18: chr16:3436009:3436110:-|3pUTR|ENSG00000167981|unk|FALSE|unique (ssRNA)
RNA: GGGAGUUCUACAGUCCGACGAUCAUUAAAAUGAAGGCUCUUGCUAAAGUUAUUUUAAUUUUGUUUACGUAGUUUCUGACUUUUAGAAGGAGGAGAAUUUAUUUAUAUUUUGCCAGUUCUGCAGACAUAUCUAGGAAAGUAAAUCAACAGAGGAUUGAGCAUCA
B19: ENSG00000107863:be:win_1751|CDS|ENSG00000107863|bound_else_gene|NA|bound_elsewhere_windowed (ssRNA)
RNA: GGGAGUUCUACAGUCCGACGAUCAAAAAAUUCCACCAGAUCUAAAAACAUUGCAGUCAAACAGAAAUUUUCAGACUACUUGUGGAAUGUCACUGCCUCGGGGUAUUUCACAAGACAGGUCACCUCUUGUGAAAGUCCGAAGUACAACAGAGGAUUGAGCAUCA
B20: chr5:91369659:91369760:-|3pUTR|ENSG00000113369|msi1|total|mutant (ssRNA)
RNA: GGGAGUUCUACAGUCCGACGAUCUCAGCAUUUUCCAAGGUACCAAGUGUACUUAUUUUGUUGUUGUUGUUGUUGUUGUAUUUCCGAAGGAAUUCAGCUCUGAUGUUUUUAAAGAAAACCAGCAUCUCUGAUGUUGCAACAUACCAACAGAGGAUUGAGCAUCA
B21: chr17:32711987:32712195:-|CDS|ENSG00000176658|control|control|control (ssRNA)
RNA: GGGAGUUCUACAGUCCGACGAUCUCCUUCAGACAAAGAGGCUGUCAAGAAACUAAUUGAACGGUGUGGUUUUCAGGAUGAUGUAGCUUAUGGGAAGACCAAAAUUUUCAUUCGAACACCCCGAACAUUGUUUACCUUGGAAGACAACAGAGGAUUGAGCAUCA
B22: ENSG00000136451:be:win_951|CDS|ENSG00000136451|bound_else_gene|NA|bound_elsewhere_windowed (ssRNA)
RNA: GGGAGUUCUACAGUCCGACGAUCUACAUGUAAACAAGGCAUCAGUAAAACAUGCAUGAGUGAAGAGACCAGUAACCAAAAGCAGCAGCAGCAGCAGCAGCAGCAGCAGCAGCAGCAGCAACAACAACAACAACAACAUGUGACCAACAGAGGAUUGAGCAUCA

target: MSI1 full-length (mouse, UniProt Q61474 1-362); experiment: nsRBNS (natural sequence RNA bind-n-seq); RBNS binding buffer (assumed for nsRBNS): 25 mM Tris pH 7.5, 150 mM KCl, 3 mM MgCl2, 0.01% Triton X-100, 500 ug/ml BSA, 20 U/ml SUPERase-In, 4 C; UNK is unkempt and MSI1 is Musashi-1; names of the RNAs are library labels; protein concentration not given here; high values mean tight binding
UniProt Q61474, sequence (Q61474 whole entry): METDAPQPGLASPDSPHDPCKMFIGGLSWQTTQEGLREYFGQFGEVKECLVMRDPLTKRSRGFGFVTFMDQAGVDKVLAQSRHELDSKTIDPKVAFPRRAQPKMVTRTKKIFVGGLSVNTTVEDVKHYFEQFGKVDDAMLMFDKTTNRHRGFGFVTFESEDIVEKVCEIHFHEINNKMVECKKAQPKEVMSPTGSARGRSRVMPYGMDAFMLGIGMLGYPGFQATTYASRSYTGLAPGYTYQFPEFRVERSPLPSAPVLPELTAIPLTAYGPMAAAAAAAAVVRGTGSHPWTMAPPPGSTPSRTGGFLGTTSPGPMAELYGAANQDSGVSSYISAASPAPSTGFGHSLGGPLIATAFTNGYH

| Binder | binding signal |
| --- | --- |
| B1 | 0.561 enrichment R |
| B2 | 0.314 enrichment R |
| B3 | 2.66 enrichment R |
| B4 | 0.482 enrichment R |
| B5 | 0.29 enrichment R |
| B6 | 0.229 enrichment R |
| B7 | 7.33 enrichment R |
| B8 | 0.547 enrichment R |
| B9 | 3.3 enrichment R |
| B10 | 0.508 enrichment R |
| B11 | 1.63 enrichment R |
| B12 | 0.655 enrichment R |
| B13 | 3.14 enrichment R |
| B14 | 5.71 enrichment R |
| B15 | 0.516 enrichment R |
| B16 | 0.583 enrichment R |
| B17 | 3.15 enrichment R |
| B18 | 19.1 enrichment R |
| B19 | 0.33 enrichment R |
| B20 | 0.263 enrichment R |
| B21 | 0.412 enrichment R |
| B22 | 0.482 enrichment R |
